Laboratory results: publication PMC4336329 (PLoS ONE, 2015)
Screen size: about 310,000 compounds; about 2,200 (0.71%) showed an effect of 50% or more. The effect is printed as a negative number. Some of the results follow.

molecular target: human ether-à-go-go-related gene (hERG) potassium channel (human, UniProt Q12809); assay: primary screen, population patch clamp on CHO cells stably expressing hERG
Sequence (Q12809 whole entry, looked up): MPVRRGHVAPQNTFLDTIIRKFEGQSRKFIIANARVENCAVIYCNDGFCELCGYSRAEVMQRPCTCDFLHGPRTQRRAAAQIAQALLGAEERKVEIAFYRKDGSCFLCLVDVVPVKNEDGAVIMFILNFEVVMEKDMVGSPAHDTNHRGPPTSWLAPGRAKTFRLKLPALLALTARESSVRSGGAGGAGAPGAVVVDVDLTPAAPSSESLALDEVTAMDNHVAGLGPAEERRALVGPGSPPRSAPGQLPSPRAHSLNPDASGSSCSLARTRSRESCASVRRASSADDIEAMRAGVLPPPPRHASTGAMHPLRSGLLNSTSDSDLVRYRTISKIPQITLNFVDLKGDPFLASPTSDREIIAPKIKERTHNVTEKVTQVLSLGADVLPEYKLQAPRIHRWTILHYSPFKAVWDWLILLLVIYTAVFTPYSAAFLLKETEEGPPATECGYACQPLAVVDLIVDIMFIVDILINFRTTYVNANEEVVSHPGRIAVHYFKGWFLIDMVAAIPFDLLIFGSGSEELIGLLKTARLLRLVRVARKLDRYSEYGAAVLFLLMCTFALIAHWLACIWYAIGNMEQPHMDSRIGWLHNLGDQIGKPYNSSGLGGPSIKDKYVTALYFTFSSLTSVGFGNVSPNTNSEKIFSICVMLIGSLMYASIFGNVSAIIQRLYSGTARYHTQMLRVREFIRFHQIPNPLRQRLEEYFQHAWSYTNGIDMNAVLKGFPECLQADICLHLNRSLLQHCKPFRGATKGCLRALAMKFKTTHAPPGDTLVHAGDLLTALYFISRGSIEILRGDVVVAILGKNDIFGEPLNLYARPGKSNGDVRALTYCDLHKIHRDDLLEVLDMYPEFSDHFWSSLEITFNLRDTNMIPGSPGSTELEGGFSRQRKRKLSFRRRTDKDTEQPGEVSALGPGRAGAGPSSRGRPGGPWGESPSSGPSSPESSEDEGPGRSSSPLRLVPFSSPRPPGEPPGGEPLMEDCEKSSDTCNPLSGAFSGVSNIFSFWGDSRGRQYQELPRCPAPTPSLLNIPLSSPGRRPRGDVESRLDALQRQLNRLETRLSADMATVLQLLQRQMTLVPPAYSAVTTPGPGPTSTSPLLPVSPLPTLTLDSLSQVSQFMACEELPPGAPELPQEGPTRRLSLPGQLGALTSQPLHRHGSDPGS

| SMILES | hERG current change (%, negative = inhibition) at 1uM [%] |
| --- | --- |
| Cc1cc(C)cc(NC2=NC3(CCCCC3)N=C(N)N2)c1 | 11 |
| CCOC(=O)C1=C(C)NC2(O)c3ccccc3C(=O)C12O (centres unmarked) | 2.48 |
| O=C(O)c1cc(-c2cccs2)nc2ccc(Br)cc12 | 10.1 |
| CS(=O)(=O)N(CC(=O)Nc1ccc(S(=O)(=O)N2CCCC2)cc1)c1cccc(F)c1 | 8.7 |
| Cc1ccc(CNC(=O)C2CCN(C(=O)c3cccc(Cl)c3)CC2)cc1 | 3.01 |
| Cc1ncc([N+](=O)[O-])n1CC(=O)Nc1cc(Cl)ccc1Cl | 19.7 |
| Cc1occc1C(=O)NC1CCCN(Cc2ccc(Cl)cc2)C1 (centres unmarked) | 5.08 |
| S=c1nc(NCc2ccc3c(c2)OCO3)c2ccccc2[nH]1 | 13.8 |
| O=C(Nc1ccc(CN2CCOCC2)cc1)c1cccc(F)c1 | 8.16 |
| COc1ccc(C(=O)NC2CCCc3c2cnn3-c2ccc(C)c(C)c2)c(OC)c1OC (centres unmarked) | 13.2 |
| Cc1ccc(/C=N/NC(=O)C2CC(=O)N(c3ccccc3)C2)s1 (centres unmarked) | -1.7 |
| CC1CCN(S(=O)(=O)c2ccc(NC(=O)CN3CCCC3)cc2)CC1.O=C(O)C(=O)O | 5.7 |
| COc1ccc(CCNC(=O)c2nnn(-c3ccccc3OC)c2N)cc1OC | 9.98 |
| CCC(=O)NCc1nc2ccccc2n1Cc1ccccc1F | 7.2 |
| CCOC(=O)c1ccccc1NC(=O)c1ccc(NS(C)(=O)=O)cc1 | -36.4 |
| O=C(CNC(=O)c1ccccc1F)OC(C(=O)Nc1cc(C(F)(F)F)ccc1Cl)c1ccccc1 (centres unmarked) | 8.23 |
| Cc1ccc(Nc2ccc(S(=O)(=O)N3CCOCC3)cc2[N+](=O)[O-])cc1C | 10.5 |
| O=C(CSc1nc2ccccc2[nH]1)NC1CCCC1 | 12 |
| COc1ccc(C(=O)N(CN2CCCC2=O)c2cc(C)on2)cc1OC | -15.9 |
| Cc1ccc(N2CC(C(N)=O)CC2=O)cc1 (centres unmarked) | 4.64 |
| Cc1cc(C=O)c(C)n1-c1cc(C(F)(F)F)ccc1N1CCOCC1 | 14.4 |
| CC1CCN(C(=O)CSc2nnc(CSc3ncccn3)n2C)CC1 | 18.9 |

| SMILES | hERG current change (%, negative = inhibition) at 1uM [%] |
| --- | --- |
| O=C1c2ccccc2C(=O)N1CCCCn1c(=O)oc2ccccc21 | 1.48 |
| Cc1nn2c(nc(N3CCOCC3)c3ccccc32)c1C=C(C#N)C#N | -22.6 |
| COC(=O)c1cnc(SCc2ccc([N+](=O)[O-])cc2)n1C | 0.751 |
| CCOC(=O)c1nnn(-c2nonc2N)c1-c1cccs1 | 5.98 |
| O=C(COC(=O)Cc1ccccc1F)Nc1ccc2c(c1)OCCO2 | 10.8 |
| N#C/C(=C\c1ccc(Sc2nc3ccccc3[nH]2)o1)c1ccccc1 | -1.26 |
| Cc1c(Cl)cnc(NC(=O)CSc2n[nH]c(N)n2)c1Cl | 6.43 |
| CN1CCc2nc3ccc(Cl)cc3c(-c3ccccc3Cl)c2C1.Cl | -4.85 |
| CC(C)(C)c1n[nH]c(=S)n(/N=C/c2cccs2)c1=O | 17.2 |
| CN(CC(=O)Nc1ccc(Cl)c(C(F)(F)F)c1)C(=O)Cc1ccsc1 | 9.92 |
| Cc1ccc(-n2nnnc2/C=C\Nc2cc(C)on2)cc1 | 9.47 |
| O=C(Nc1nnc(-c2ccc(F)cc2)o1)c1ccco1 | 8.5 |
| COc1cccc(C=NCC(C)N=Cc2cccc(OC)c2O)c1O (centres unmarked) | 1.06 |
| Cc1ccc(OCCN(C)C(=O)C2CCC(=O)N(CCCN3CCOCC3)C2)cc1 (centres unmarked) | 11.3 |
| O=C(O)c1coc2ccccc12 | 16.1 |
| O=c1ccn(-c2ccccc2)[nH]1 | 8.25 |
| O=C(CSc1ccc(Br)c2cccc(Cl)c12)Nc1ccc(S(=O)(=O)Nc2nccs2)cc1 | 15.1 |
| CCc1ccc2c(c1)cc(CN(C(=S)Nc1ccccc1)C1CC1)c1nnnn12 | -1.57 |
| CCCCCn1c(CN2CCN(C(=O)OCC)CC2)nc2c1c(=O)[nH]c(=O)n2C | -39 |
| Nc1nc(NC(=O)c2ccco2)nn1-c1ccccc1 | 9.23 |
| N/C(Cc1ccc(Cl)cc1Cl)=N\OC(=O)c1ccccc1 | 7.82 |
| Cn1c(CNc2ccc(Cl)cc2)nc2ccccc21 | 4.16 |
